# Test results taken from the supplement of paper PMC11876631.
# ± gives the standard deviation of the averaged measurements. Laboratory Escherichia coli strains with one amino-acid change in an essential protein, pooled on minimal glucose agar with carbenicillin or gentamicin at twice the control MIC (plus kanamycin and chloramphenicol for the plasmids), 48 h. Fold change of barcode share against drug-free plates; higher = less susceptible. Active = above 20 in both replicates (the paper's putatively resistant). '<' = one read or none on drug, '>' = one read or none on a drug-free plate. Shares are relative, so most strains fall below 1 when a few take over. Listed are strains with at least 15 reads on both drug-free plates, and hits; most hits rest on fewer reference reads. Replicate rank correlation about 0.5. Edits are read from barcodes.
# B1: ftsB L8W (protein)
# chain: MGKLTLLWLAILVWLQYSLWFGKNGIHDYTRVNDDVAAQQATNAKLKARNDQLFAEIDDLNGGQEALEERARNELSMTRPGETFYRLVPDASKRAQSAGQNNR
# B2: ftsI F550W (protein)
# chain: MKAAAKTQKPKRQEEHANFISWRFALLCGCILLALAFLLGRVAWLQVISPDMLVKEGDMRSLRVQQVSTSRGMITDRSGRPLAVSVPVKAIWADPKEVHDAGGISVGDRWKALANALNIPLDQLSARINANPKGRFIYLARQVNPDMADYIKKLKLPGIHLREESRRYYPSGEVTAHLIGFTNVDSQGIEGVEKSFDKWLTGQPGERIVRKDRYGRVIEDISSTDSQAAHNLALSIDERLQALVYRELNNAVAFNKAESGSAVLVDVNTGEVLAMANSPSYNPNNLSGTPKEAMRNRTITDVFEPGSTVKPMVVMTALQRGVVRENSVLNTIPYRINGHEIKDVARYSELTLTGVLQKSSNVGVSKLALAMPSSALVDTYSRFGLGKATNLGLVGERSGLYPQKQRWSDIERATFSFGYGLMVTPLQLARVYATIGSYGIYRPLSITKVDPPVPGERVFPESIVRTVVHMMESVALPGGGGVKAAIKGYRIAIKTGTAKKVGPDGRYINKYIAYTAGVAPASQPRFALVVVINDPQAGKYYGGAVSAPVWGAIMGGVLRTMNIEPDALTTGDKNEFVINQGEGTGGRS
# B3: ftsW I124Q (protein)
# chain: MRLSLPRLKMPRLPGFSILVWISTALKGWVMGSREKDTDSLIMYDRTLLWLTFGLAAIGFIMVTSASMPIGQRLTNDPFFFAKRDGVYLILAFILAIITLRLPMEFWQRYSATMLLGSIILLMQVLVVGSSVKGASRWIDLGLLRIQPAELTKLSLFCYIANYLVRKGDEVRNNLRGFLKPMGVILVLAVLLLAQPDLGTVVVLFVTTLAMLFLAGAKLWQFIAIIGMGISAVVLLILAEPYRIRRVTAFWNPWEDPFGSGYQLTQSLMAFGRGELWGQGLGNSVQKLEYLPEAHTDFIFAIIGEELGYVGVVLALLMVFFVAFRAMSIGRKALEIDHRFSGFLACSIGIWFSFQALVNVGAAAGMLPTKGLTLPLISYGGSSLLIMSTAIMMLLRIDYETRLEKAQAFVRGSR
# B4: ftsW I124D (protein)
# chain: MRLSLPRLKMPRLPGFSILVWISTALKGWVMGSREKDTDSLIMYDRTLLWLTFGLAAIGFIMVTSASMPIGQRLTNDPFFFAKRDGVYLILAFILAIITLRLPMEFWQRYSATMLLGSIILLMDVLVVGSSVKGASRWIDLGLLRIQPAELTKLSLFCYIANYLVRKGDEVRNNLRGFLKPMGVILVLAVLLLAQPDLGTVVVLFVTTLAMLFLAGAKLWQFIAIIGMGISAVVLLILAEPYRIRRVTAFWNPWEDPFGSGYQLTQSLMAFGRGELWGQGLGNSVQKLEYLPEAHTDFIFAIIGEELGYVGVVLALLMVFFVAFRAMSIGRKALEIDHRFSGFLACSIGIWFSFQALVNVGAAAGMLPTKGLTLPLISYGGSSLLIMSTAIMMLLRIDYETRLEKAQAFVRGSR
# B5: ftsW I124P (protein)
# chain: MRLSLPRLKMPRLPGFSILVWISTALKGWVMGSREKDTDSLIMYDRTLLWLTFGLAAIGFIMVTSASMPIGQRLTNDPFFFAKRDGVYLILAFILAIITLRLPMEFWQRYSATMLLGSIILLMPVLVVGSSVKGASRWIDLGLLRIQPAELTKLSLFCYIANYLVRKGDEVRNNLRGFLKPMGVILVLAVLLLAQPDLGTVVVLFVTTLAMLFLAGAKLWQFIAIIGMGISAVVLLILAEPYRIRRVTAFWNPWEDPFGSGYQLTQSLMAFGRGELWGQGLGNSVQKLEYLPEAHTDFIFAIIGEELGYVGVVLALLMVFFVAFRAMSIGRKALEIDHRFSGFLACSIGIWFSFQALVNVGAAAGMLPTKGLTLPLISYGGSSLLIMSTAIMMLLRIDYETRLEKAQAFVRGSR
# B6: argC V75D (protein)
# chain: MLNTLIVGASGYAGAELVTYVNRHPHMNITALTVSAQSNDAGKLISDLHPQLKGIVDLPLQPMSDISEFSPGVDDVFLATAHEVSHDLAPQFLEAGCVVFDLSGAFRVNDATFYEKYYGFTHQYPELLEQAAYGLAEWCGNKLKEANLIAVPGCYPTAAQLALKPLIDADLLDLNQWPVINATSGVSGAGRKAAISNSFCEVSLQPYGVFTHRHQPEIATHLGADVIFTPHLGNFPRGILETITCRLKSGVTQAQVAQVLQQAYAHKPLVRLYDKGVPALKNVVGLPFCDIGFAVQGEHLIIVATEDNLLKGAAAQAVQCANIRFGYAETQSLI
# B7: ftsW F300W (protein)
# chain: MRLSLPRLKMPRLPGFSILVWISTALKGWVMGSREKDTDSLIMYDRTLLWLTFGLAAIGFIMVTSASMPIGQRLTNDPFFFAKRDGVYLILAFILAIITLRLPMEFWQRYSATMLLGSIILLMIVLVVGSSVKGASRWIDLGLLRIQPAELTKLSLFCYIANYLVRKGDEVRNNLRGFLKPMGVILVLAVLLLAQPDLGTVVVLFVTTLAMLFLAGAKLWQFIAIIGMGISAVVLLILAEPYRIRRVTAFWNPWEDPFGSGYQLTQSLMAFGRGELWGQGLGNSVQKLEYLPEAHTDFIWAIIGEELGYVGVVLALLMVFFVAFRAMSIGRKALEIDHRFSGFLACSIGIWFSFQALVNVGAAAGMLPTKGLTLPLISYGGSSLLIMSTAIMMLLRIDYETRLEKAQAFVRGSR
# B8: ftsY M404W (protein)
# chain: MAKEKKRGFFSWLGFGQKEQTPEKETEVQNEQPVVEEIVQAQEPVKASEQAVEEQPQAHTEAEAETFAADVVEVTEQVAESEKAQPEAEVVAQPEPVVEETPEPVAIEREELPLPEDVNAEAVSPEEWQAEAETVEIVEAAEEEAAKEEITDEELETALAAEAAEEAVMVVPPAEEEQPVEEIAQEQEKPTKEGFFARLKRSLLKTKENLGSGFISLFRGKKIDDDLFEELEEQLLIADVGVETTRKIITNLTEGASRKQLRDAEALYGLLKEEMGEILAKVDEPLNVEGKAPFVILMVGVNGVGKTTTIGKLARQFEQQGKSVMLAAGDTFRAAAVEQLQVWGQRNNIPVIAQHTGADSASVIFDAIQAAKARNIDVLIADTAGRLQNKSHLMEELKKIVRVWKKLDVEAPHEVMLTIDASTGQNAVSQAKLFHEAVGLTGITLTKLDGTAKGGVIFSVADQFGIPIRYIGVGERIEDLRPFKADDFIEALFARED
# B9: gapA F18Q (protein)
# chain: MTIKVGINGFGRIGRIVQRAAQKRSDIEIVAINDLLDADYMAYMLKYDSTHGRFDGTVEVKDGHLIVNGKKIRVTAERDPANLKWDEVGVDVVAEATGLFLTDETARKHITAGAKKVVMTGPSKDNTPMFVKGANFDKYAGQDIVSNASCTTNCLAPLAKVINDNFGIIEGLMTTVHATTATQKTVDGPSHKDWRGGRGASQNIIPSSTGAAKAVGKVLPELNGKLTGMAFRVPTPNVSVVDLTVRLEKAATYEQIKAAVKAAAEGEMKGVLGYTEDDVVSTDFNGEVCTSVFDAKAGIALNDNFVKLVSWYDNETGYSNKVLDLIAHISK
# B10: gapA M119Q (protein)
# chain: MTIKVGINGFGRIGRIVFRAAQKRSDIEIVAINDLLDADYMAYMLKYDSTHGRFDGTVEVKDGHLIVNGKKIRVTAERDPANLKWDEVGVDVVAEATGLFLTDETARKHITAGAKKVVQTGPSKDNTPMFVKGANFDKYAGQDIVSNASCTTNCLAPLAKVINDNFGIIEGLMTTVHATTATQKTVDGPSHKDWRGGRGASQNIIPSSTGAAKAVGKVLPELNGKLTGMAFRVPTPNVSVVDLTVRLEKAATYEQIKAAVKAAAEGEMKGVLGYTEDDVVSTDFNGEVCTSVFDAKAGIALNDNFVKLVSWYDNETGYSNKVLDLIAHISK
# B11: argC I302W (protein)
# chain: MLNTLIVGASGYAGAELVTYVNRHPHMNITALTVSAQSNDAGKLISDLHPQLKGIVDLPLQPMSDISEFSPGVDVVFLATAHEVSHDLAPQFLEAGCVVFDLSGAFRVNDATFYEKYYGFTHQYPELLEQAAYGLAEWCGNKLKEANLIAVPGCYPTAAQLALKPLIDADLLDLNQWPVINATSGVSGAGRKAAISNSFCEVSLQPYGVFTHRHQPEIATHLGADVIFTPHLGNFPRGILETITCRLKSGVTQAQVAQVLQQAYAHKPLVRLYDKGVPALKNVVGLPFCDIGFAVQGEHLIWVATEDNLLKGAAAQAVQCANIRFGYAETQSLI
# B12: argC I302D (protein)
# chain: MLNTLIVGASGYAGAELVTYVNRHPHMNITALTVSAQSNDAGKLISDLHPQLKGIVDLPLQPMSDISEFSPGVDVVFLATAHEVSHDLAPQFLEAGCVVFDLSGAFRVNDATFYEKYYGFTHQYPELLEQAAYGLAEWCGNKLKEANLIAVPGCYPTAAQLALKPLIDADLLDLNQWPVINATSGVSGAGRKAAISNSFCEVSLQPYGVFTHRHQPEIATHLGADVIFTPHLGNFPRGILETITCRLKSGVTQAQVAQVLQQAYAHKPLVRLYDKGVPALKNVVGLPFCDIGFAVQGEHLIDVATEDNLLKGAAAQAVQCANIRFGYAETQSLI
# B13: glmS I181Q (protein)
# chain: MCGIVGAIAQRDVAEILLEGLRRLEYRGYDSAGLAVVDAEGHMTRLRRLGKVQMLAQAAEEHPLHGGTGIAHTRWATHGEPSEVNAHPHVSEHIVVVHNGIIENHEPLREELKARGYTFVSETDTEVIAHLVNWELKQGGTLREAVLRAIPQLRGAYGTVIMDSRHPDTLLAARSGSPLVQGLGMGENFIASDQLALLPVTRRFIFLEEGDIAEITRRSVNIFDKTGAEVKRQDIESNLQYDAGDKGIYRHYMQKEIYEQPNAIKNTLTGRISHGQVDLSELGPNADELLSKVEHIQILACGTSYNSGMVSRYWFESLAGIPCDVEIASEFRYRKSAVRRNSLMITLSQSGETADTLAGLRLSKELGYLGSLAICNVPGSSLVRESDLALMTNAGTEIGVASTKAFTTQLTVLLMLVAKLSRLKGLDASIEHDIVHGLQALPSRIEQMLSQDKRIEALAEDFSDKHHALFLGRGDQYPIALEGALKLKEISYIHAEAYAAGELKHGPLALIDADMPVIVVAPNNELLEKLKSNIEEVRARGGQLYVFADQDAGFVSSDNMHIIEMPHVEEVIAPIFYTVPLQLLAYHVALIKGTDVDQPRNLAKSVTVE
# Molecular target: Escherichia coli (laboratory strain)
# Assay: barcode share on antibiotic plates over drug-free plates; higher = less susceptible
# Conditions: antibiotic: gentamicin; 2× MIC (MIC 0.45 µg/mL)
# Method: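 A pool of E. coli strains, each edited to carry one amino-acid change in an essential protein, was grown for 48 h on minimal glucose agar with or without antibiotic; strain barcodes were sequenced; mean of two replicates.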
row,Protein,fold change of barcode share
1,B1,< 0.0143
2,B2,< 0.0153
3,B3,< 0.0175
4,B4,< 0.0191
5,B5,< 0.0167
6,B6,< 0.0196
7,B7,< 0.0203
8,B8,< 0.0185
9,B9,< 0.0195
10,B10,0.018 ± 0.0096
11,B11,< 0.0151
12,B12,< 0.0164
13,B13,< 0.0172
